Test results taken from a collection of fitness landscapes (doi:10.1016/j.celrep.2020.107928).
In all, about 81,000 sequences were measured (“one-hybrid fitness for binding NBS DNA”: median about -0.1, highest 2% from about 0.36 on). The list shows a part of the results.

B1: Caulobacter ParB omega fusion; a variant is named by its letters at X, in order, B8GW30 (parent)
chain: MESVVVGEPGMSEGRRGLGRGLSALLGEVDAAPAQAPGEQLGGSREAPIEILQRNPDQPRRTFREEDLEDLSNSIREKGVLQPILVRPSPDTAGEYQIVAGERAWRAAQRAGLKTVPIMVRELDDLAVLEIGIIENVQRADLNVLEEALSYKVLMEKFERTQENIAQTIGKSXSHVANXMRLLXLPDEVQSYLVSGELTAXHARAIAAAADPVALAKQIIEGGLSVRETEALARKAPNLSAGKSKGGRPPRVKDTDTQALESDLSSVLGLDVSIDHRGSTGTLTITYATLEQLDDLCNRLTRGI

Variants of: B1
Experiment: one-hybrid fitness for binding NBS DNA (the Noc-binding site; scaled: cognate 1, non-cognate 0); higher = stronger binding
Conditions: with NBS DNA site
Procedure, shortened: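 Caulobacter ParB libraries with four specificity codons randomised were screened by bacterial one-hybrid selection in the E. coli USO strain, using a HIS3 reporter whose site lies 19 bp from the promoter. Selection ran for 48 hours at 37°C on M9 lacking histidine, with 0.1 mM IPTG and 5 mM 3-AT. Plasmids were Illumina-sequenced before and after selection, three replicate libraries were pooled, and variants with under 10 reads were dropped. Fitness is the log change in each variant's read ratio to wild type, rescaled against the cognate and non-cognate sites.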

| Variant | one-hybrid fitness for binding NBS DNA |
| --- | --- |
| LPMN | ≤ 0.2 |
| ASHI | ≤ 0.2 |
| RKGL | ≤ 0.2 |
| HPWR | ≤ 0.2 |
| RLDY | ≤ 0.2 |
| KTGR | 0.206 |
| DHQC | ≤ 0.2 |
| QHGV | ≤ 0.2 |
| VHDS | ≤ 0.2 |
| ADWV | ≤ 0.2 |
| KHRV | ≤ 0.2 |
| QVEN | ≤ 0.2 |
| GIRR | ≤ 0.2 |
| PRFT | ≤ 0.2 |
| PPTH | ≤ 0.2 |
| VNMD | ≤ 0.2 |
| CRAR | ≤ 0.2 |
| PKPT | ≤ 0.2 |
| WPNA | ≤ 0.2 |
| RWTD | ≤ 0.2 |
| PCVR | ≤ 0.2 |
| RVAT | 0.383 |
| DIQR | ≤ 0.2 |
| IKWR | ≤ 0.2 |

| Variant | one-hybrid fitness for binding NBS DNA |
| --- | --- |
| IVYR | ≤ 0.2 |
| PAQT | ≤ 0.2 |
| DNYR | ≤ 0.2 |
| TPAI | ≤ 0.2 |
| QKHY | 0.206 |
| FSVD | ≤ 0.2 |
| EPRK | ≤ 0.2 |
| MTMI | ≤ 0.2 |
| AGHI | ≤ 0.2 |
| ATGD | ≤ 0.2 |
| SRVH | ≤ 0.2 |
| QSDQ | ≤ 0.2 |
| LMYN | ≤ 0.2 |
| ISYT | ≤ 0.2 |
| WPAA | ≤ 0.2 |
| GSTP | ≤ 0.2 |
| SQLC | ≤ 0.2 |
| PRMD | ≤ 0.2 |
| YDAV | ≤ 0.2 |
| KWQW | ≤ 0.2 |
| CKMS | ≤ 0.2 |
| RCCK | ≤ 0.2 |
| VVSW | ≤ 0.2 |
| DWPS | ≤ 0.2 |

| Variant | one-hybrid fitness for binding NBS DNA |
| --- | --- |
| SDTP | ≤ 0.2 |
| VEKG | ≤ 0.2 |
| HWNR | ≤ 0.2 |
| VQMR | ≤ 0.2 |
| PRGC | ≤ 0.2 |
| YSRS | ≤ 0.2 |
| STER | ≤ 0.2 |
| EYVV | ≤ 0.2 |
| AKRE | ≤ 0.2 |
| TVVW | ≤ 0.2 |
| TNTW | ≤ 0.2 |
| LPYF | ≤ 0.2 |
| RSTK | ≤ 0.2 |
| PDMS | ≤ 0.2 |
| PCTK | ≤ 0.2 |
| STIC | ≤ 0.2 |
| TPDY | ≤ 0.2 |
| KMVC | ≤ 0.2 |
| CTWL | ≤ 0.2 |
| QVRY | 0.286 |
| SDNF | ≤ 0.2 |
| LMTS | ≤ 0.2 |
| HEPW | ≤ 0.2 |
| LPDN | ≤ 0.2 |

| Variant | one-hybrid fitness for binding NBS DNA |
| --- | --- |
| YRLC | ≤ 0.2 |
| SEHW | ≤ 0.2 |
| LRQF | ≤ 0.2 |
| VGKY | ≤ 0.2 |
| FEPP | ≤ 0.2 |
| SGQS | ≤ 0.2 |
| LRAF | ≤ 0.2 |
| KYIT | ≤ 0.2 |
| CYVR | ≤ 0.2 |
| IRRV | ≤ 0.2 |
| AKCS | ≤ 0.2 |
| DSIG | ≤ 0.2 |
| PQNR | ≤ 0.2 |
| WLTG | ≤ 0.2 |
| GETD | ≤ 0.2 |
| ILYG | ≤ 0.2 |
| PNIT | ≤ 0.2 |
| CAFA | ≤ 0.2 |
| QSQA | 0.248 |
| RRYT | 0.769 |
| LGWR | ≤ 0.2 |
| HEWC | ≤ 0.2 |
| FYVT | ≤ 0.2 |
| QTVH | 0.247 |

| Variant | one-hybrid fitness for binding NBS DNA |
| --- | --- |
| SSCR | ≤ 0.2 |
| KDNC | ≤ 0.2 |
| RKMP | ≤ 0.2 |
| HRIT | ≤ 0.2 |
| IYCF | ≤ 0.2 |
| PYAQ | ≤ 0.2 |
| FSAC | ≤ 0.2 |
| RTQW | ≤ 0.2 |
| MNAN | ≤ 0.2 |
| VTWR | ≤ 0.2 |
| RTVP | ≤ 0.2 |
| NLGW | ≤ 0.2 |
| VCTR | ≤ 0.2 |
| SARW | ≤ 0.2 |
| FKQW | ≤ 0.2 |
| LCKV | ≤ 0.2 |
| LWKS | ≤ 0.2 |
| VSRV | ≤ 0.2 |
| MWEG | ≤ 0.2 |
| WGFS | ≤ 0.2 |
| ELAN | ≤ 0.2 |
| SLQQ | ≤ 0.2 |
| RCFV | ≤ 0.2 |
| YSIS | ≤ 0.2 |

| Variant | one-hybrid fitness for binding NBS DNA |
| --- | --- |
| NGNP | ≤ 0.2 |
| QGHA | ≤ 0.2 |
| LDGC | ≤ 0.2 |
| TYWF | ≤ 0.2 |
| TRTA | ≤ 0.2 |
| AKNL | ≤ 0.2 |
| MMNL | ≤ 0.2 |
| HAVE | ≤ 0.2 |
| GQRR | ≤ 0.2 |
| HVAM | ≤ 0.2 |
| SISK | ≤ 0.2 |
| IHFT | ≤ 0.2 |
| SQRL | ≤ 0.2 |
| INHL | ≤ 0.2 |
| AWCS | ≤ 0.2 |
| RHGL | ≤ 0.2 |
| FNTY | ≤ 0.2 |
| RPMR | ≤ 0.2 |
| YISA | ≤ 0.2 |
| YSDT | ≤ 0.2 |
| TFRR | ≤ 0.2 |
| LDDK | ≤ 0.2 |
| PPLA | ≤ 0.2 |
| ETIT | ≤ 0.2 |

| Variant | one-hybrid fitness for binding NBS DNA |
| --- | --- |
| PSPP | ≤ 0.2 |
| LQWD | ≤ 0.2 |
| CPSM | ≤ 0.2 |
| RNHW | ≤ 0.2 |
| PCVY | ≤ 0.2 |
| THYR | ≤ 0.2 |
| QSYD | ≤ 0.2 |
| SGDT | ≤ 0.2 |
| AYIC | ≤ 0.2 |
| CQTG | ≤ 0.2 |
| DTDT | ≤ 0.2 |
| VPNR | ≤ 0.2 |
| QFPC | ≤ 0.2 |
| LMNH | ≤ 0.2 |
| GVVC | ≤ 0.2 |
| RFNH | ≤ 0.2 |
| TSPI | ≤ 0.2 |
| QLHC | ≤ 0.2 |
| PLVC | ≤ 0.2 |
| IRGA | ≤ 0.2 |
| LLAM | ≤ 0.2 |
| HPVS | ≤ 0.2 |
| ETNY | ≤ 0.2 |
| HVRR | ≤ 0.2 |

| Variant | one-hybrid fitness for binding NBS DNA |
| --- | --- |
| EGGG | ≤ 0.2 |
| KRPY | ≤ 0.2 |
| SWSG | ≤ 0.2 |
| CDLR | ≤ 0.2 |
| NEGG | ≤ 0.2 |
| IARH | ≤ 0.2 |
| RVAG | ≤ 0.2 |
| CGER | ≤ 0.2 |
| RNNG | ≤ 0.2 |
| PSNC | ≤ 0.2 |
| AFAN | ≤ 0.2 |
| KAAK | ≤ 0.2 |
| RRMD | ≤ 0.2 |
| KSEY | ≤ 0.2 |
| CAVM | ≤ 0.2 |
| RGNK | ≤ 0.2 |
| AYGW | ≤ 0.2 |
| CTCV | ≤ 0.2 |
| IQLY | ≤ 0.2 |
| RAFE | ≤ 0.2 |
| WDAG | ≤ 0.2 |
| FGYG | ≤ 0.2 |
| EPKS | ≤ 0.2 |
| GPNT | ≤ 0.2 |

| Variant | one-hybrid fitness for binding NBS DNA |
| --- | --- |
| RIFK | ≤ 0.2 |
| GKES | ≤ 0.2 |
| VIRC | ≤ 0.2 |
| RMDL | ≤ 0.2 |
| SSPN | ≤ 0.2 |
| QGHD | ≤ 0.2 |
| HGMG | ≤ 0.2 |
| PAAG | ≤ 0.2 |
| PDRC | ≤ 0.2 |
| HASK | ≤ 0.2 |
| HVTM | ≤ 0.2 |
| RRVW | ≤ 0.2 |
| HYYG | ≤ 0.2 |
| PVVA | ≤ 0.2 |
| CCTK | ≤ 0.2 |
| ASPE | ≤ 0.2 |
| RFLE | ≤ 0.2 |
| RWVT | 0.21 |
| SFAF | ≤ 0.2 |
| TSRT | ≤ 0.2 |
| QCAF | ≤ 0.2 |
| YPVS | ≤ 0.2 |
| QVYC | ≤ 0.2 |
| REYE | ≤ 0.2 |

| Variant | one-hybrid fitness for binding NBS DNA |
| --- | --- |
| HPSC | ≤ 0.2 |
| SMVR | ≤ 0.2 |
| LSRC | ≤ 0.2 |
| SHPI | ≤ 0.2 |
| LCLN | ≤ 0.2 |
| KYNG | ≤ 0.2 |
| HTTT | ≤ 0.2 |
| WDLC | ≤ 0.2 |
| AQMM | ≤ 0.2 |
| THPW | ≤ 0.2 |
| LNEV | ≤ 0.2 |
| TCRS | ≤ 0.2 |
| RHQV | ≤ 0.2 |
| VSCT | ≤ 0.2 |
| WFGG | ≤ 0.2 |
| VNRT | ≤ 0.2 |
| GQWL | ≤ 0.2 |
| RPVI | ≤ 0.2 |
| RGAM | ≤ 0.2 |
| NLCC | ≤ 0.2 |
| VKTC | ≤ 0.2 |
| QRYV | 0.348 |
| PSDD | ≤ 0.2 |
| NSNF | ≤ 0.2 |

| Variant | one-hybrid fitness for binding NBS DNA |
| --- | --- |
| NCLM | ≤ 0.2 |
| LVRH | ≤ 0.2 |
| YTRW | ≤ 0.2 |
| MNYT | ≤ 0.2 |
| QWVN | ≤ 0.2 |
| SQQW | ≤ 0.2 |
| YAPS | ≤ 0.2 |
| RLLG | ≤ 0.2 |
| YGNF | ≤ 0.2 |
| LGNG | ≤ 0.2 |
| QYET | 0.277 |
| RFEW | ≤ 0.2 |
| LGEF | ≤ 0.2 |
| VDGV | ≤ 0.2 |
| KQSS | ≤ 0.2 |
| PYFY | ≤ 0.2 |
| KLMR | ≤ 0.2 |
| RRTS | 0.661 |
| FFPG | ≤ 0.2 |
| RQML | ≤ 0.2 |
| TKTP | ≤ 0.2 |
| QNEM | ≤ 0.2 |
| RWGM | ≤ 0.2 |
| HHMR | ≤ 0.2 |

| Variant | one-hybrid fitness for binding NBS DNA |
| --- | --- |
| QVFI | ≤ 0.2 |
| NPRS | ≤ 0.2 |
| IRGV | ≤ 0.2 |
| QYLA | ≤ 0.2 |
| CRVE | ≤ 0.2 |
| SRSK | ≤ 0.2 |
| DDAS | ≤ 0.2 |
| HQSI | ≤ 0.2 |
| RHIL | ≤ 0.2 |
| ITYY | ≤ 0.2 |
| LYDA | ≤ 0.2 |
| DRCR | ≤ 0.2 |
| TDHS | ≤ 0.2 |
| FTGV | ≤ 0.2 |
| IPML | ≤ 0.2 |
| QNGY | ≤ 0.2 |
| SGLN | ≤ 0.2 |
| TVSL | ≤ 0.2 |
| PGKC | ≤ 0.2 |
| PRAC | ≤ 0.2 |
| KSFR | ≤ 0.2 |
| FLFC | ≤ 0.2 |
| MRVF | ≤ 0.2 |
| DYFS | ≤ 0.2 |

| Variant | one-hybrid fitness for binding NBS DNA |
| --- | --- |
| CLHC | ≤ 0.2 |
| DKTG | ≤ 0.2 |
| WENE | ≤ 0.2 |
| NSSG | ≤ 0.2 |
| TREY | ≤ 0.2 |
| FQYR | ≤ 0.2 |
| GQNT | ≤ 0.2 |
| AYTC | ≤ 0.2 |
| PAWG | ≤ 0.2 |
| KVRI | ≤ 0.2 |
| VAIT | ≤ 0.2 |
| RSVD | ≤ 0.2 |
| FYMG | ≤ 0.2 |
| IYER | ≤ 0.2 |
| VKPP | ≤ 0.2 |
| QRTI | 0.327 |
| VNTE | ≤ 0.2 |
| CTQP | ≤ 0.2 |
